Measurements: paper PMC7819943, “Rice protein-binding microarrays: a tool to detect cis-acting elements near promoter regions in rice”
The other results are listed elsewhere or left out.

molecular target: T1, OsWOX13 (Oryza sativa, UniProt Q5QMM3 1-267); test: protein-binding microarray (RPBM); PBS, 2% BSA, 51.3 ng/ul salmon testes DNA, 50 uM zinc acetate, 200 nM TF, 25 C, 1 h; high values mean tight binding; settings: protein: recombinant; tags: N-terminal polyhistidine and DsRed monomer fusion (pET32a); label: CyDye5-dUTP incorporated in the synthesized complementary strand; 3' TTTTT single-stranded linker to array surface; dsDNA, one strand shown
T1 sequence: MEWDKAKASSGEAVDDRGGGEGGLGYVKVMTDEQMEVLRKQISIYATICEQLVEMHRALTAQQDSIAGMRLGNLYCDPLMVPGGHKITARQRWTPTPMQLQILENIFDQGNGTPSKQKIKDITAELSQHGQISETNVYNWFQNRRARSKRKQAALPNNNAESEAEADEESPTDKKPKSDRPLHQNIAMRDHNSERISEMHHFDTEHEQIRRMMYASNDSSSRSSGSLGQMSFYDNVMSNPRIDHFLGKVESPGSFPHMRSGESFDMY
Outline: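 Transcription factors were made in E. coli BL21-CodonPlus as N-terminal fusions to a polyhistidine tag and DsRed, then purified on Ni–NTA. After primer extension with Cy5-dUTP and blocking with 2% BSA, a custom Agilent array was exposed for 1 h at 25 °C to 200 nM protein in PBS, 2% BSA, salmon testes DNA and 50 µM zinc acetate. Washed arrays were scanned on an Axon 4000B, and the binding signal is per-feature fluorescence intensity in arbitrary units.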

Sequence | binding signal
GATTAATTGAATTATGATTTGTCTCATCTAGTAAAATGTTCGGAGTCACCTAGTGCAG | 47500 fluorescence intensity (a.u.)
ACTAATTAGACTTAAAAGATTTGTCTCATGATTTACTCCCCGGAGTCACCTAGTGCAG | 56300 fluorescence intensity (a.u.)
GCAGGAATTTTCCATGGACTAATTAAAAGTTTAATTAGTTCGGAGTCACCTAGTGCAG | 6050 fluorescence intensity (a.u.)
AGCTAGCTAATTAGTTACCACGTACGAACGAGTACTTTACCGGAGTCACCTAGTGCAG | 10800 fluorescence intensity (a.u.)
CCTTGAGATGTTTTGTGATTGATGAAAAGGTCTGCTGTATCGGAGTCACCTAGTGCAG | 25400 fluorescence intensity (a.u.)
ATCTTTAGTCAATAAATTTTAAATTTTAGAAGTCTGTGTACGGAGTCACCTAGTGCAG | 4840 fluorescence intensity (a.u.)
GAGTATTAATTGTACATAATCAATTGAGTATTAATTATTACGGAGTCACCTAGTGCAG | 18500 fluorescence intensity (a.u.)
TCAACTAATGAATTAATCTATTTGATCAACTCCTATAAATCGGAGTCACCTAGTGCAG | 9630 fluorescence intensity (a.u.)
CGTTGTTTTGATTATGATATCACAACTTCAAACATTCTTTCGGAGTCACCTAGTGCAG | 6500 fluorescence intensity (a.u.)
TTTCAAAATTTATGTCAAAATTTTCTGCACTAATTATTTACGGAGTCACCTAGTGCAG | 7840 fluorescence intensity (a.u.)
ATCTAGATGGAGTTAACATTTTATAAATATGTTTGGCTTGCGGAGTCACCTAGTGCAG | 3510 fluorescence intensity (a.u.)
AATAATAAATTAAAATAGCCTTTACCGGTGCAACGCACGACGGAGTCACCTAGTGCAG | 10600 fluorescence intensity (a.u.)
ATATATATATATATATATATATATATGCAGCAACAGGGCCCGGAGTCACCTAGTGCAG | 43100 fluorescence intensity (a.u.)
TTAAACCGTTTGATTGGTAGGGGAAATGAGGTGGCCGCCGCGGAGTCACCTAGTGCAG | 26400 fluorescence intensity (a.u.)
AATCCAATTGAATAAATTATCTATGTTTAAAAGAGTAATGCGGAGTCACCTAGTGCAG | 20100 fluorescence intensity (a.u.)
AGGAAACGGTGATTTGTTTGACATGGAATTAACCTATCAGCGGAGTCACCTAGTGCAG | 22100 fluorescence intensity (a.u.)
GTTTAGCACTTAATCATATAATTATTACGATGGATCATTTCGGAGTCACCTAGTGCAG | 7060 fluorescence intensity (a.u.)
ACTGATTTTAGTAAATCTGGAAGGAAGCGTGGTGGCAAAGCGGAGTCACCTAGTGCAG | 13700 fluorescence intensity (a.u.)
CACAGATAGGCCGGTGATCAGATTTCAGATATTCCCCATTCGGAGTCACCTAGTGCAG | 4440 fluorescence intensity (a.u.)
ATGTCAGCAATGAAGGATTTGATTGCCAAGTAAGGCGGGTCGGAGTCACCTAGTGCAG | 6410 fluorescence intensity (a.u.)
ACTATTAAAACTAATAGATTTTATCCCTTTGAACGGTACGCGGAGTCACCTAGTGCAG | 3160 fluorescence intensity (a.u.)

Sequence | binding signal
TATCTAATTAATTCATTCGTTTACGTTATTGAATAATCCCCGGAGTCACCTAGTGCAG | 33000 fluorescence intensity (a.u.)
CGTCGGGGTTGGGGTTGGGGCTGGGGCCGGCGCCGACGCCCGGAGTCACCTAGTGCAG | 4150 fluorescence intensity (a.u.)
CGCTAACAGAACCTTCCGGTATGACCTAACAATGTTGTACCGGAGTCACCTAGTGCAG | 9440 fluorescence intensity (a.u.)
AAAATATGACTAACTATGACAGGTATGAACGGTGAGCTGCCGGAGTCACCTAGTGCAG | 3800 fluorescence intensity (a.u.)
TTAATGAACTGCTGACTGGACTGCTACGCGTACACCACGTCGGAGTCACCTAGTGCAG | 8510 fluorescence intensity (a.u.)
AAAACGTATGATTTAGTAGATTGGAAAGCATACAGATGAACGGAGTCACCTAGTGCAG | 6530 fluorescence intensity (a.u.)
TAATACTTAATTAATCACGCACTAATATACCGCTCCATTTCGGAGTCACCTAGTGCAG | 22700 fluorescence intensity (a.u.)
ATAGTTACACTGTAATTACACTATAGTTACACTACTATAGCGGAGTCACCTAGTGCAG | 3340 fluorescence intensity (a.u.)
TTCCTCAAACTGATTGGAATTCTGATTATGTGTTGCATATCGGAGTCACCTAGTGCAG | 33900 fluorescence intensity (a.u.)
TCTAATTACTTATTAATTAATTGATTTAATTAAATTAATCCGGAGTCACCTAGTGCAG | 40400 fluorescence intensity (a.u.)
AGTAGTAAATTAAACTTCACATGTTTAACGTTGTGGAACACGGAGTCACCTAGTGCAG | 10200 fluorescence intensity (a.u.)
TATTTGATAGCTTTATCCAAATAATCTTGTGTGCGAAAGCCGGAGTCACCTAGTGCAG | 4720 fluorescence intensity (a.u.)
GAGATAATGATTTACATTGTTTGTATATTGAGTTCTAAAACGGAGTCACCTAGTGCAG | 11600 fluorescence intensity (a.u.)
TCTGATGGATCAGCATGCACGTAGTGTACACGTCACTCCACGGAGTCACCTAGTGCAG | 5750 fluorescence intensity (a.u.)
TATTACTGAAAGAATAATTAGCAGTAAATACGAGCACACGCGGAGTCACCTAGTGCAG | 8140 fluorescence intensity (a.u.)
TTTTGAGATTGAGAAAACACATATAGAAATTATACAGGATCGGAGTCACCTAGTGCAG | 7250 fluorescence intensity (a.u.)
TACACCAAATTGACTAGGCATATATTTGTACCACTCATTCCGGAGTCACCTAGTGCAG | 12500 fluorescence intensity (a.u.)
TTAGATTATGGATGCACATCTTTACAGTTTGGAAATCCCTCGGAGTCACCTAGTGCAG | 7090 fluorescence intensity (a.u.)
CACAAACTTATGAAATCTATGATTAGTCAGCTAGCCGTTGCGGAGTCACCTAGTGCAG | 8880 fluorescence intensity (a.u.)
CTGCTAATTAGCTCCCTCTCTTCTTCATCCAAGCTAGCTACGGAGTCACCTAGTGCAG | 30500 fluorescence intensity (a.u.)
TTGTTTAAATTATTGTGTCTAACCTACGAGCCCAACCCAACGGAGTCACCTAGTGCAG | 6180 fluorescence intensity (a.u.)

Sequence | binding signal
TTCTTAATAATATACTACTAATTTCGATCGTCCCTTAATTCGGAGTCACCTAGTGCAG | 5100 fluorescence intensity (a.u.)
AGACAATTCAATAATTAATCTACACTTTCCTTCCGCACCTCGGAGTCACCTAGTGCAG | 5880 fluorescence intensity (a.u.)
TTATATAAATTATATATCGCACCATTAATACTTTGGTCTACGGAGTCACCTAGTGCAG | 7960 fluorescence intensity (a.u.)
TGCCAAAATTAATTTAAATTTGAAAAGGGTGAAGTTTTGTCGGAGTCACCTAGTGCAG | 15600 fluorescence intensity (a.u.)
ACATTTAAAATATCAAATTAATTTCATTAAATCTAACATTCGGAGTCACCTAGTGCAG | 5900 fluorescence intensity (a.u.)
CAATATTTAAATGATGGATTAAAAGAATTCATATATTTCGCGGAGTCACCTAGTGCAG | 7400 fluorescence intensity (a.u.)
AATCTGGTTTCAAAATTTATCAATTTAGCTTACCTGTTGACGGAGTCACCTAGTGCAG | 5960 fluorescence intensity (a.u.)
TCCAAATTGTAGTTAATTTTAAATTGTATTCCTACTTGAACGGAGTCACCTAGTGCAG | 34700 fluorescence intensity (a.u.)
AGTTAATGAGGACGATGCACAAAATTTCATACTCGTGTCTCGGAGTCACCTAGTGCAG | 3720 fluorescence intensity (a.u.)
AGCCAAAGTGATAAATTAATGCAGTAGAGAGAGATTGGTGCGGAGTCACCTAGTGCAG | 3950 fluorescence intensity (a.u.)
AAATATACATCAAATCTAATTTGTATCCCTCAATTGCAATCGGAGTCACCTAGTGCAG | 6290 fluorescence intensity (a.u.)
CACTTCTGTACTTGGCGTGATTGGGCCGCGGACCGGTAGACGGAGTCACCTAGTGCAG | 3750 fluorescence intensity (a.u.)
CAAATTTGATCAACCACACTAGTATAAATGCATCACAACTCGGAGTCACCTAGTGCAG | 3370 fluorescence intensity (a.u.)
ATACCGTTTTATTTTGTAATTTACTCTCATCTTTATATAGCGGAGTCACCTAGTGCAG | 3970 fluorescence intensity (a.u.)
GCTTATTGATAAATGTTTAGTCTCACAACTGTATGCTAACCGGAGTCACCTAGTGCAG | 19800 fluorescence intensity (a.u.)
GTGTAACAGGGAAAATCATTACGTTTCGTTCGTCTACAGTCGGAGTCACCTAGTGCAG | 7450 fluorescence intensity (a.u.)
TGTAACTGACAGCCTGTTTGTCGAATTATTTAAGGCTCGTCGGAGTCACCTAGTGCAG | 25400 fluorescence intensity (a.u.)
AGCATTCTCTTAATTTAATACTAAAGTAAACTTATGCATACGGAGTCACCTAGTGCAG | 3340 fluorescence intensity (a.u.)
ACCTTATTGATCGTCCATGTTTTCCGGTGAATTAAACCCACGGAGTCACCTAGTGCAG | 7570 fluorescence intensity (a.u.)
CAAATTGGAAAGTGTTAATGGACGTAGTAAAGGCGATGCACGGAGTCACCTAGTGCAG | 15700 fluorescence intensity (a.u.)
AAACTAATTACATAGATTGCAACTAATTTGCGAGACGAATCGGAGTCACCTAGTGCAG | 35700 fluorescence intensity (a.u.)

Sequence | binding signal
TGTCAAAATGATTTAGTAGTTCCCAACACAGTACAAGTTGCGGAGTCACCTAGTGCAG | 3500 fluorescence intensity (a.u.)
TTATTTCTTAATTGTATTTCTATATGGACTCTATACTCTACGGAGTCACCTAGTGCAG | 4030 fluorescence intensity (a.u.)
ATAACCATCTAATTTTATGATGATAGTTTGGTTCGTTAAACGGAGTCACCTAGTGCAG | 3450 fluorescence intensity (a.u.)
CTTTATTACCAATCAAAATAGACACCTTACCTACTTTCATCGGAGTCACCTAGTGCAG | 11300 fluorescence intensity (a.u.)
ATATATAGCACTAATAATTGCCCAATTTACGATGGTGTAACGGAGTCACCTAGTGCAG | 4050 fluorescence intensity (a.u.)
ATGTATGAGTATTAATTAATTTGTTTTGCGGAGACCATCTCGGAGTCACCTAGTGCAG | 22400 fluorescence intensity (a.u.)
CAAGCTAAATTAATTAGAAACCTAATTGGCAAAATGAAGCCGGAGTCACCTAGTGCAG | 42400 fluorescence intensity (a.u.)
TATCCAATCAAATTTTCACAGTGAATTTTACCGTAGCTAACGGAGTCACCTAGTGCAG | 13000 fluorescence intensity (a.u.)
CTGACGCTCTAAATTAAGACTGATGAAAGGTGGCCGTCGTCGGAGTCACCTAGTGCAG | 4760 fluorescence intensity (a.u.)
CACCAAAGTCAATCAAATAAATACTCATCATCCATTCCGTCGGAGTCACCTAGTGCAG | 10100 fluorescence intensity (a.u.)
CATCATTGTACTGTTAATTAAATCATCATGGTCATTATCACGGAGTCACCTAGTGCAG | 5140 fluorescence intensity (a.u.)
AGTGCTGATGGGGAAATTTAGCTAATAGGAATAAGCTACACGGAGTCACCTAGTGCAG | 9410 fluorescence intensity (a.u.)
GTTTGATTTATATCTGATCGTCCGAAATGGGTTTATAGTGCGGAGTCACCTAGTGCAG | 38600 fluorescence intensity (a.u.)
TTGTAATTTCGTATAGCCCAAAATGCCCCTGTCTCCACCTCGGAGTCACCTAGTGCAG | 3500 fluorescence intensity (a.u.)
TCTAGAAATAACACGTGGTGATTAATATGGTTGTTTGAACCGGAGTCACCTAGTGCAG | 3590 fluorescence intensity (a.u.)
ACACTAACAGTATATCATTAGTTAGTGGCTAACGATGCAACGGAGTCACCTAGTGCAG | 4770 fluorescence intensity (a.u.)
TTATATTAGACTGAAATCGTCTTATATCCGTGTGCATGGGCGGAGTCACCTAGTGCAG | 8100 fluorescence intensity (a.u.)
CTAGATTTATTAATGAGACTTCTATTATCAGTACAAAACACGGAGTCACCTAGTGCAG | 24300 fluorescence intensity (a.u.)
AACTTGTGATTGACTCCTCAAGCACCTTTGGCATGGCCATCGGAGTCACCTAGTGCAG | 41200 fluorescence intensity (a.u.)
CGAAATTGGATGAAATGGCAATGTGGCAAGATGGTGACGTCGGAGTCACCTAGTGCAG | 18700 fluorescence intensity (a.u.)
ATGTACTATATTGCAAATCATCAATGATGGATCCAAGGTGCGGAGTCACCTAGTGCAG | 7490 fluorescence intensity (a.u.)
